# ± gives the standard deviation of the averaged measurements. This is one part of the list.
# System: Drosophila ezoana
# Test: attraction index (odor vs solvent trap) (index (-1 to 1)); higher = more attraction to the odorant
# Settings: odor dose: 10^-2 dilution in mineral oil
# Protocol: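 Two-choice trap assay (odor 10^-2 in mineral oil vs solvent, 20 flies, 24 h) run in a Percival incubator at test temperatures of 10-35 °C and 70% humidity, with flies reared at 18 or 25 °C. Attraction index = (O-C)/n; 10 replicates. The paper excluded the 10 and 35 °C tests because of impaired locomotion.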
# [1] = test temperature 15 °C, rearing temperature 18 °C
# [2] = test temperature 15 °C, rearing temperature 25 °C
# [3] = test temperature 20 °C, rearing temperature 18 °C
# [4] = test temperature 20 °C, rearing temperature 25 °C
# [5] = test temperature 25 °C, rearing temperature 18 °C
# [6] = test temperature 25 °C, rearing temperature 25 °C
# [7] = test temperature 30 °C, rearing temperature 18 °C
# [8] = test temperature 30 °C, rearing temperature 25 °C
Structure (SMILES),attraction index [1],attraction index [2],attraction index [3],attraction index [4],attraction index [5],attraction index [6],attraction index [7],attraction index [8]
COc1ccccc1O [guaiacol],-0.151 ± 0.076,-0.373 ± 0.64,-0.369 ± 0.41,-0.556 ± 0.36,-0.266 ± 0.33,-0.151 ± 0.5,0.374 ± 0.73,0.333 ± 0.32
COC(=O)c1ccccc1O [methyl salicylate],0.109 ± 0.17,0.186 ± 0.8,0.253 ± 0.38,0.434 ± 0.24,0.117 ± 0.58,0.179 ± 0.62,-0.15 ± 0.32,-0.286 ± 0.2
CC(C)OC(=O)c1ccccc1 [isopropyl benzoate],-0.11 ± 0.45,0.0971 ± 0.47,-0.102 ± 0.32,0.184 ± 0.41,0.181 ± 0.44,-0.0366 ± 0.54,-0.0718 ± 0.38,0.0764 ± 0.38

# — the supplement of paper PMC10477191
